The whole screen tested about 310,000 compounds, of which about 14,000 (4.5%) showed an effect of 50% or more. The effect is printed as a negative number. Some of the results follow.
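Further: peak tail current of the secondary pulse compared with the same well before compound.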

The target of this assay is human ether-à-go-go-related gene (hERG) potassium channel (human, UniProt Q12809). Briefly: primary screen, population patch clamp on CHO cells stably expressing hERG.
Chain of human ether-à-go-go-related gene (hERG) potassium channel (Q12809 whole entry, looked up): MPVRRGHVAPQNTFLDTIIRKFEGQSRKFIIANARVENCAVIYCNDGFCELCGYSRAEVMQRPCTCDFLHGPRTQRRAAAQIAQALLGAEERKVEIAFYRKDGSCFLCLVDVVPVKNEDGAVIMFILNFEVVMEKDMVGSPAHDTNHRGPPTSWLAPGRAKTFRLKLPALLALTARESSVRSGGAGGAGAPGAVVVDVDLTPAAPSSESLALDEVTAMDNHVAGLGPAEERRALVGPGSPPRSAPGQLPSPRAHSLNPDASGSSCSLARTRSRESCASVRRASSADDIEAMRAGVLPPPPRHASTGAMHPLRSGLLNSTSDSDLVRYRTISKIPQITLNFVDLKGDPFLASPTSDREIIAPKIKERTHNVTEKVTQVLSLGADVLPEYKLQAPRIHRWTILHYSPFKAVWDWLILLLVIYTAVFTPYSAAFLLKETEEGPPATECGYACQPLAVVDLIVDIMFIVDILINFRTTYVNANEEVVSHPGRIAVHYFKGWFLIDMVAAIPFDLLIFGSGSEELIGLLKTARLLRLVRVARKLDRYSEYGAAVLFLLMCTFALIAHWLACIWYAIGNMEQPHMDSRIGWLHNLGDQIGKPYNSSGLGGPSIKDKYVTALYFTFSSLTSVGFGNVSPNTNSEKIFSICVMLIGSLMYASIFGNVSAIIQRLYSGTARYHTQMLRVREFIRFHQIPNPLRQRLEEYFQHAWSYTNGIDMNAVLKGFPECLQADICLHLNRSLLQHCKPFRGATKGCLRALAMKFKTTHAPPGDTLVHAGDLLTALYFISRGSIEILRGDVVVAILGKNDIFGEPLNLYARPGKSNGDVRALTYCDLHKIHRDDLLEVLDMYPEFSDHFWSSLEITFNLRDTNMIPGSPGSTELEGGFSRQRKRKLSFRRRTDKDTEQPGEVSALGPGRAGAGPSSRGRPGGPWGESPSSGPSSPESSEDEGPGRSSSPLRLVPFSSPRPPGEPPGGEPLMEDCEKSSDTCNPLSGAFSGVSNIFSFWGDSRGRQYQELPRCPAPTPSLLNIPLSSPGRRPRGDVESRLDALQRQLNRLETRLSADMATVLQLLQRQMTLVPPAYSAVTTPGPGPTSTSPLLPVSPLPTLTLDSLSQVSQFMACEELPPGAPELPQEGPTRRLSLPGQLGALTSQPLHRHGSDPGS
For the compound `N#C/C(=C\c1ccccc1)c1nc2ncccc2[nH]1`, the “hERG current change (%, negative = inhibition) at 10uM” value was found to be 7.46%.

Consider `N#Cc1cn(Cc2ccncc2)c(=O)[nH]c1=O`, for which the “hERG current change (%, negative = inhibition) at 10uM” value was determined as 19.9%.

`COc1ccc(NC(=O)c2cc3ccccc3o2)cc1`: the “hERG current change (%, negative = inhibition) at 10uM” value is reported as -0.841%.

For `CS(=O)(=O)Nc1nnc(Cc2ccccc2)s1`, the “hERG current change (%, negative = inhibition) at 10uM” value came out at 7.47%.

With `O=C(N/N=C/c1ccccc1)c1c(O)c2ccccc2[nH]c1=O`, the “hERG current change (%, negative = inhibition) at 10uM” value came to 5.86%.

As for `C=CCOc1ccc(/C=C/C(=O)OCC(=O)NCC2CCCO2)cc1` (stereo not shown), the “hERG current change (%, negative = inhibition) at 10uM” value was -16.9%.

As for `COc1cc(C2c3c(oc4c(C)cc(C)cc4c3=O)C(=O)N2Cc2cccnc2)ccc1O` (stereo not shown), the “hERG current change (%, negative = inhibition) at 10uM” value came out at 5.03%.

As for `CC(C)(C)c1ccc(N/N=C(\C#N)S(=O)(=O)C(C)(C)C)cc1`, the “hERG current change (%, negative = inhibition) at 10uM” value is 10%.

For `Cc1c(/C=N/NC(=O)c2ccc3c(c2)OCO3)cnn1C`, the “hERG current change (%, negative = inhibition) at 10uM” value was found to be 8.53%.

Regarding `Cc1c(NC(=S)Nc2cccc(Cl)c2)c(=O)n(-c2ccccc2)n1C`, the “hERG current change (%, negative = inhibition) at 10uM” value came to 10.2%.

Consider `Cc1ccc(C(=O)OCC(=O)Nc2ccc3c(c2)OCO3)cc1S(=O)(=O)N1CCOCC1`, for which the “hERG current change (%, negative = inhibition) at 10uM” value turned out to be 1.72%.

With `O=C1C2CCCN2C(c2ccccc2F)N1c1ccc(F)cc1` (stereo not shown), the “hERG current change (%, negative = inhibition) at 10uM” value worked out at 8.24%.

Turning to `CNC(=O)c1cc(Nc2nnc(-c3ccc(O)cc3)c3ccccc23)ccc1OC`, the “hERG current change (%, negative = inhibition) at 10uM” value is reported as 4.28%.

Regarding `C/C(N)=C(/C#N)C(=O)COC(=O)c1cc(S(=O)(=O)N2CCCCC2)ccc1C`, the “hERG current change (%, negative = inhibition) at 10uM” value is 5.29%.

For `Cc1ccc(C(F)(F)F)cc1NC(N)=S`, the “hERG current change (%, negative = inhibition) at 10uM” value is reported as 2.66%.

Regarding `CCOc1cccc(=O)c2c(C)n(CC3CCCO3)c(C)c12` (stereo not shown), the “hERG current change (%, negative = inhibition) at 10uM” value is -2.39%.

In the case of `COc1cc2c(cc1OC)-c1cc(Nc3ccccc3)nc(=O)n1CC2`, the “hERG current change (%, negative = inhibition) at 10uM” value is -64.1%.

In the case of `Cn1c(SCC(=O)Nc2ccc3c(c2)oc2ccccc23)nnc1-c1ccccc1`, the “hERG current change (%, negative = inhibition) at 10uM” value is 16.1%.

Regarding `COc1ccc(N(CC(=O)NC2CCCCC2)S(=O)(=O)c2cccnc2)cc1`, the “hERG current change (%, negative = inhibition) at 10uM” value is -10.5%.

`Cc1ccc(NC(=S)/C(=C(\[O-])c2ccc(F)cc2)[n+]2ccccc2)cc1`: the “hERG current change (%, negative = inhibition) at 10uM” value was found to be 9%.

As for `O=C1C(=O)N(CCN2CCOCC2)C(c2ccc(F)cc2)/C1=C(/O)c1ccc(S(=O)(=O)N2CCOCC2)cc1` (stereo not shown), the “hERG current change (%, negative = inhibition) at 10uM” value stood at 23.8%.

In the case of `COc1cc(OC)c(NS(=O)(=O)c2ccc(Cl)c(C(=O)OC(C)C(=O)N3CCCC3)c2)cc1Cl` (stereo not shown), the “hERG current change (%, negative = inhibition) at 10uM” value is on record as -41%.

For `O=C(c1ccc(Cl)cc1)N1CCc2c([nH]c3ccccc23)C1C(F)(F)F` (stereo not shown), the “hERG current change (%, negative = inhibition) at 10uM” value is on record as 12.9%.

As to `Cc1ccc(C)c(N2CCN(C(=O)Cn3ncc4c([nH]c5ccc(C)cc54)c3=O)CC2)c1`, the “hERG current change (%, negative = inhibition) at 10uM” value is 13.5%.

Turning to `Clc1cccc(Oc2ncccn2)c1`, the “hERG current change (%, negative = inhibition) at 10uM” value was found to be 19.1%.

For the compound `Cn1cnnc1SCc1ccccc1[N+](=O)[O-]`, the “hERG current change (%, negative = inhibition) at 10uM” value is on record as 13.7%.

In the case of `O=C(COc1cnc2ccccc2n1)NCCC1=CCCCC1`, the “hERG current change (%, negative = inhibition) at 10uM” value turned out to be 11.3%.

On to `CCN(C(=O)CSc1nc2nc(C)cc(C)n2n1)C1CCS(=O)(=O)C1` (stereo not shown), for which the “hERG current change (%, negative = inhibition) at 10uM” value is 20.5%.

With `COC(=O)c1ccc(Cl)c(NC(=O)CN2CCOCC2)c1`, the “hERG current change (%, negative = inhibition) at 10uM” value stood at 2.49%.

As for `CC1=[N+](C)c2ccc3ccccc3c2C1(C)C`, the “hERG current change (%, negative = inhibition) at 10uM” value is listed as -34.3%.

As for `Nc1ccccc1NC(=O)NC(=O)c1ccccc1`, the “hERG current change (%, negative = inhibition) at 10uM” value came to 12.5%.

With `COc1ccc(SC[C@H](Cc2ccccc2)N2CCN(CCc3ccccc3)CCC2=O)cc1`, the “hERG current change (%, negative = inhibition) at 10uM” value is given as -74.6%.

Consider `COC(=O)c1cc(-c2c(C)oc3cc(OC(C)C)ccc3c2=O)c(C)o1`, for which the “hERG current change (%, negative = inhibition) at 10uM” value was -16.7%.

As to `OCC1(Cc2ccc(Cl)cc2)CCN(Cc2ccc(Oc3ncccn3)cc2)CC1`, the “hERG current change (%, negative = inhibition) at 10uM” value was -74.1%.

On to `COc1cccc(NC(=S)N(CCc2c(C)[nH]c3ccccc23)Cc2ccco2)c1`, for which the “hERG current change (%, negative = inhibition) at 10uM” value is reported as 10.7%.

Take `CCOc1ccc(C(=O)CN2CCN(S(=O)(=O)c3ccc(Cl)cc3)CC2)cc1`: the “hERG current change (%, negative = inhibition) at 10uM” value is listed as -40.2%.

Turning to `Cc1nc(SCCO)c2oc3ccccc3c2n1`, the “hERG current change (%, negative = inhibition) at 10uM” value is reported as 3.6%.

As for `CCC(C(=O)OCC(=O)Nc1cccc(OC)c1)c1ccccc1` (stereo not shown), the “hERG current change (%, negative = inhibition) at 10uM” value is -1.9%.

As for `CC(C)NC(=O)C1CC(=O)N(c2ccc(F)c(Cl)c2)C1` (stereo not shown), the “hERG current change (%, negative = inhibition) at 10uM” value came to 7.82%.

On to `CNCC(O)Cn1c(C(F)(F)F)nc2ccccc21` (stereo not shown), for which the “hERG current change (%, negative = inhibition) at 10uM” value stood at 15.9%.

For the compound `O=S(=O)(NCc1ccco1)c1ccc2ccccc2c1`, the “hERG current change (%, negative = inhibition) at 10uM” value was 7.32%.

As to `COC(=O)C1=C(O)/C(=C\c2cc(C)n(-c3ccccc3C)c2C)N=C1C`, the “hERG current change (%, negative = inhibition) at 10uM” value turned out to be 8.78%.

In the case of `CC(C)Oc1ccccc1C(=O)NC(CO)C(=O)O` (stereo not shown), the “hERG current change (%, negative = inhibition) at 10uM” value is on record as 29.1%.

Regarding `O=C(C(Cc1ccccc1)N1C(=O)c2ccccc2C1=O)N1c2ccccc2CCc2ccccc21` (stereo not shown), the “hERG current change (%, negative = inhibition) at 10uM” value worked out at 4.02%.

On to `COc1cccc2c(C)cc(N3CCCCCC3)nc12`, for which the “hERG current change (%, negative = inhibition) at 10uM” value was -52.9%.

In the case of `CCOC(=O)c1c(NC(=O)CSc2nnc(-c3ccc(OC)cc3)o2)sc2c1CCC2`, the “hERG current change (%, negative = inhibition) at 10uM” value amounted to 11.5%.

Consider `CCN(C(=O)COC(=O)c1ccc(=O)n(Cc2ccccc2)n1)C1CCCCC1`, for which the “hERG current change (%, negative = inhibition) at 10uM” value was 9.54%.

As for `Cc1ccc(-n2c3nc(=O)[nH]c(=O)c-3cc3c(C)nn(-c4ccccc4)c32)c(C)c1`, the “hERG current change (%, negative = inhibition) at 10uM” value worked out at 9.98%.

Regarding `CC1Cn2c(COc3ccccc3)nnc2S1` (stereo not shown), the “hERG current change (%, negative = inhibition) at 10uM” value is 5.49%.

Take `Cc1cccc(-n2c(CNC(=O)c3ccccc3)nnc2SCC(=O)Nc2nccs2)c1`: the “hERG current change (%, negative = inhibition) at 10uM” value is given as -4.18%.

For the compound `COC(=O)c1sccc1NC(=O)c1c(Cl)cccc1Cl`, the “hERG current change (%, negative = inhibition) at 10uM” value is listed as 18.1%.

On to `CCOc1cccc(N)c1`, for which the “hERG current change (%, negative = inhibition) at 10uM” value worked out at 3.39%.

Take `Cc1nnc(NC(=O)CSc2ccc([N+](=O)[O-])cn2)s1`: the “hERG current change (%, negative = inhibition) at 10uM” value is 17.9%.

As for `CC1=CC(C)C(COC(=O)CN2CCCCC2)C(C)C1` (stereo not shown), the “hERG current change (%, negative = inhibition) at 10uM” value is 7.6%.

On to `NS(=O)(=O)c1ccc(N=Nc2c(O)[nH]c(=S)[nH]c2=O)cc1`, for which the “hERG current change (%, negative = inhibition) at 10uM” value is on record as 27.3%.

On to `Cc1nc(Sc2nnnn2C)c2c3c(sc2n1)CCC3`, for which the “hERG current change (%, negative = inhibition) at 10uM” value is listed as 2.42%.

For `COC(=O)c1ccccc1NC(=O)Nc1cc(C)cc(C)n1`, the “hERG current change (%, negative = inhibition) at 10uM” value came out at 1.33%.

Turning to `CCOC(=O)C1CCN(c2nc3ccccc3nc2C(C#N)C(=O)OC(C)COC)CC1` (stereo not shown), the “hERG current change (%, negative = inhibition) at 10uM” value was -13.9%.
